Results taken from the supplement of paper PMC12230231.

The sequences below were run on SIVsab (simian immunodeficiency virus of sabaeus monkeys), single-cycle GFP reporter, in CRFK cells (assay: enrichment among uninfected cells over input (fold); higher = stronger restriction). Settings: library: human / rhesus combinations.
Method: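 Pools of CRFK cells expressing variants of the TRIM5α v1 loop were challenged with the single-cycle reporter, sorted by GFP and sequenced; mean of two replicates.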

Row | Sequence | enrichment
1 | MASGILVNVKEEVTCPICLELLTQPLSLDCGHSFCQACLTANHKKSMLDKGESSCPVCRISYQPENIRPNRHVANIVEKLREVKLSPEGQKVDHCARHGEKLLLFCQEDGKVICWLCERSQEHRGHHTFLTEEVAREYQVKLQAALEMLRQKQQEAEELEADIREEKASWKTQIQYDKTNVLADFEQLRDILDWEESNELQNLEKEEEDILKSLTNSETEMVQQTQSLRELISDLEHRLQGSVMELLQGVDGVIKRTENVTLKKPETFPKNQRRVFRAPDLKGMLEVFRELTDVRRYWVDVTVAPNNISCAVISEDKRQVSSPKPQIIYGAPGTRYPTLVNFNYCTGILGSQSITSGKHYWEVDVSKKTAWILGVCAGFQPDAMCNIEKNENYQPKYGYWVIGLEEGVKCSAFQDSSFHTPSVPFIVPLSVIICPDRVGVFLDYEACTVSFFNITNHGFLIYKFSHCSFSQPVFPYLNPRKCGVPMTLCSPSS [human TRIM5α, 330-340 = GAPGTRYPTLV] | 0.0122 ± 0.0017
2 | MASGILVNVKEEVTCPICLELLTQPLSLDCGHSFCQACLTANHKKSMLDKGESSCPVCRISYQPENIRPNRHVANIVEKLREVKLSPEGQKVDHCARHGEKLLLFCQEDGKVICWLCERSQEHRGHHTFLTEEVAREYQVKLQAALEMLRQKQQEAEELEADIREEKASWKTQIQYDKTNVLADFEQLRDILDWEESNELQNLEKEEEDILKSLTNSETEMVQQTQSLRELISDLEHRLQGSVMELLQGVDGVIKRTENVTLKKPETFPKNQRRVFRAPDLKGMLEVFRELTDVRRYWVDVTVAPNNISCAVISEDKRQVSSPKPQIIYGARGTLFTFPSFVNFNYCTGILGSQSITSGKHYWEVDVSKKTAWILGVCAGFQPDAMCNIEKNENYQPKYGYWVIGLEEGVKCSAFQDSSFHTPSVPFIVPLSVIICPDRVGVFLDYEACTVSFFNITNHGFLIYKFSHCSFSQPVFPYLNPRKCGVPMTLCSPSS [human TRIM5α, 330-340 = GARGTLFTFPSFV] | 0.303 ± 0.18
3 | MASGILVNVKEEVTCPICLELLTQPLSLDCGHSFCQACLTANHKKSMLDKGESSCPVCRISYQPENIRPNRHVANIVEKLREVKLSPEGQKVDHCARHGEKLLLFCQEDGKVICWLCERSQEHRGHHTFLTEEVAREYQVKLQAALEMLRQKQQEAEELEADIREEKASWKTQIQYDKTNVLADFEQLRDILDWEESNELQNLEKEEEDILKSLTNSETEMVQQTQSLRELISDLEHRLQGSVMELLQGVDGVIKRTENVTLKKPETFPKNQRRVFRAPDLKGMLEVFRELTDVRRYWVDVTVAPNNISCAVISEDKRQVSSPKPQIIYGARGTLFPSLVNFNYCTGILGSQSITSGKHYWEVDVSKKTAWILGVCAGFQPDAMCNIEKNENYQPKYGYWVIGLEEGVKCSAFQDSSFHTPSVPFIVPLSVIICPDRVGVFLDYEACTVSFFNITNHGFLIYKFSHCSFSQPVFPYLNPRKCGVPMTLCSPSS [human TRIM5α, 330-340 = GARGTLFPSLV] | 0.328 ± 0.46
4 | MASGILVNVKEEVTCPICLELLTQPLSLDCGHSFCQACLTANHKKSMLDKGESSCPVCRISYQPENIRPNRHVANIVEKLREVKLSPEGQKVDHCARHGEKLLLFCQEDGKVICWLCERSQEHRGHHTFLTEEVAREYQVKLQAALEMLRQKQQEAEELEADIREEKASWKTQIQYDKTNVLADFEQLRDILDWEESNELQNLEKEEEDILKSLTNSETEMVQQTQSLRELISDLEHRLQGSVMELLQGVDGVIKRTENVTLKKPETFPKNQRRVFRAPDLKGMLEVFRELTDVRRYWVDVTVAPNNISCAVISEDKRQVSSPKPQIIYGARGTLFPTLTNFNYCTGILGSQSITSGKHYWEVDVSKKTAWILGVCAGFQPDAMCNIEKNENYQPKYGYWVIGLEEGVKCSAFQDSSFHTPSVPFIVPLSVIICPDRVGVFLDYEACTVSFFNITNHGFLIYKFSHCSFSQPVFPYLNPRKCGVPMTLCSPSS [human TRIM5α, 330-340 = GARGTLFPTLT] | 0.00571 ± 0.004
5 | MASGILVNVKEEVTCPICLELLTQPLSLDCGHSFCQACLTANHKKSMLDKGESSCPVCRISYQPENIRPNRHVANIVEKLREVKLSPEGQKVDHCARHGEKLLLFCQEDGKVICWLCERSQEHRGHHTFLTEEVAREYQVKLQAALEMLRQKQQEAEELEADIREEKASWKTQIQYDKTNVLADFEQLRDILDWEESNELQNLEKEEEDILKSLTNSETEMVQQTQSLRELISDLEHRLQGSVMELLQGVDGVIKRTENVTLKKPETFPKNQRRVFRAPDLKGMLEVFRELTDVRRYWVDVTVAPNNISCAVISEDKRQVSSPKPQIIYGARGTRYTFQTLTNFNYCTGILGSQSITSGKHYWEVDVSKKTAWILGVCAGFQPDAMCNIEKNENYQPKYGYWVIGLEEGVKCSAFQDSSFHTPSVPFIVPLSVIICPDRVGVFLDYEACTVSFFNITNHGFLIYKFSHCSFSQPVFPYLNPRKCGVPMTLCSPSS [human TRIM5α, 330-340 = GARGTRYTFQTLT] | 0.15 ± 0.0018
6 | MASGILVNVKEEVTCPICLELLTQPLSLDCGHSFCQACLTANHKKSMLDKGESSCPVCRISYQPENIRPNRHVANIVEKLREVKLSPEGQKVDHCARHGEKLLLFCQEDGKVICWLCERSQEHRGHHTFLTEEVAREYQVKLQAALEMLRQKQQEAEELEADIREEKASWKTQIQYDKTNVLADFEQLRDILDWEESNELQNLEKEEEDILKSLTNSETEMVQQTQSLRELISDLEHRLQGSVMELLQGVDGVIKRTENVTLKKPETFPKNQRRVFRAPDLKGMLEVFRELTDVRRYWVDVTVAPNNISCAVISEDKRQVSSPKPQIIYGAPGTRFTFQSFVNFNYCTGILGSQSITSGKHYWEVDVSKKTAWILGVCAGFQPDAMCNIEKNENYQPKYGYWVIGLEEGVKCSAFQDSSFHTPSVPFIVPLSVIICPDRVGVFLDYEACTVSFFNITNHGFLIYKFSHCSFSQPVFPYLNPRKCGVPMTLCSPSS [human TRIM5α, 330-340 = GAPGTRFTFQSFV] | 0.131 ± 0.0087

Same assay, conditions: library: insertions and deletions

Row | Sequence | enrichment
7 | MASGILVNVKEEVTCPICLELLTQPLSLDCGHSFCQACLTANHKKSMLDKGESSCPVCRISYQPENIRPNRHVANIVEKLREVKLSPEGQKVDHCARHGEKLLLFCQEDGKVICWLCERSQEHRGHHTFLTEEVAREYQVKLQAALEMLRQKQQEAEELEADIREEKASWKTQIQYDKTNVLADFEQLRDILDWEESNELQNLEKEEEDILKSLTNSETEMVQQTQSLRELISDLEHRLQGSVMELLQGVDGVIKRTENVTLKKPETFPKNQRRVFRAPDLKGMLEVFRELTDVRRYWVDVTVAPNNISCAVISEDKRQVSSPKPQIIYGAARGTRYQTFVNFNYCTGILGSQSITSGKHYWEVDVSKKTAWILGVCAGFQPDAMCNIEKNENYQPKYGYWVIGLEEGVKCSAFQDSSFHTPSVPFIVPLSVIICPDRVGVFLDYEACTVSFFNITNHGFLIYKFSHCSFSQPVFPYLNPRKCGVPMTLCSPSS [human TRIM5α, 1-codon duplication at 331] | 0.3 ± 0.085
8 | MASGILVNVKEEVTCPICLELLTQPLSLDCGHSFCQACLTANHKKSMLDKGESSCPVCRISYQPENIRPNRHVANIVEKLREVKLSPEGQKVDHCARHGEKLLLFCQEDGKVICWLCERSQEHRGHHTFLTEEVAREYQVKLQAALEMLRQKQQEAEELEADIREEKASWKTQIQYDKTNVLADFEQLRDILDWEESNELQNLEKEEEDILKSLTNSETEMVQQTQSLRELISDLEHRLQGSVMELLQGVDGVIKRTENVTLKKPETFPKNQRRVFRAPDLKGMLEVFRELTDVRRYWVDVTVAPNNISCAVISEDKRQVSSPKPQIIYGATFVNFNYCTGILGSQSITSGKHYWEVDVSKKTAWILGVCAGFQPDAMCNIEKNENYQPKYGYWVIGLEEGVKCSAFQDSSFHTPSVPFIVPLSVIICPDRVGVFLDYEACTVSFFNITNHGFLIYKFSHCSFSQPVFPYLNPRKCGVPMTLCSPSS [human TRIM5α, 6-codon deletion at 332] | 0.819 ± 0.055
9 | MASGILVNVKEEVTCPICLELLTQPLSLDCGHSFCQACLTANHKKSMLDKGESSCPVCRISYQPENIRPNRHVANIVEKLREVKLSPEGQKVDHCARHGEKLLLFCQEDGKVICWLCERSQEHRGHHTFLTEEVAREYQVKLQAALEMLRQKQQEAEELEADIREEKASWKTQIQYDKTNVLADFEQLRDILDWEESNELQNLEKEEEDILKSLTNSETEMVQQTQSLRELISDLEHRLQGSVMELLQGVDGVIKRTENVTLKKPETFPKNQRRVFRAPDLKGMLEVFRELTDVRRYWVDVTVAPNNISCAVISEDKRQVSSPKPQIIYGARGTRYQTFVNFNYCTGILFNYCTGILGSQSITSGKHYWEVDVSKKTAWILGVCAGFQPDAMCNIEKNENYQPKYGYWVIGLEEGVKCSAFQDSSFHTPSVPFIVPLSVIICPDRVGVFLDYEACTVSFFNITNHGFLIYKFSHCSFSQPVFPYLNPRKCGVPMTLCSPSS [human TRIM5α, 8-codon duplication at 342] | 0.531 ± 0.65
10 | MASGILVNVKEEVTCPICLELLTQPLSLDCGHSFCQACLTANHKKSMLDKGESSCPVCRISYQPENIRPNRHVANIVEKLREVKLSPEGQKVDHCARHGEKLLLFCQEDGKVICWLCERSQEHRGHHTFLTEEVAREYQVKLQAALEMLRQKQQEAEELEADIREEKASWKTQIQYDKTNVLADFEQLRDILDWEESNELQNLEKEEEDILKSLTNSETEMVQQTQSLRELISDLEHRLQGSVMELLQGVDGVIKRTENVTLKKPETFPKNQRRVFRAPDLKGMLEVFRELTDVRRYWVDVTVAPNNISCAVISEDKRQVSSPKPQIIYGARGTRYQTFVNFNYCTGILGSYCTGILGSQSITSGKHYWEVDVSKKTAWILGVCAGFQPDAMCNIEKNENYQPKYGYWVIGLEEGVKCSAFQDSSFHTPSVPFIVPLSVIICPDRVGVFLDYEACTVSFFNITNHGFLIYKFSHCSFSQPVFPYLNPRKCGVPMTLCSPSS [human TRIM5α, 8-codon duplication at 344] | 0.345 ± 0.27
11 | MASGILVNVKEEVTCPICLELLTQPLSLDCGHSFCQACLTANHKKSMLDKGESSCPVCRISYQPENIRPNRHVANIVEKLREVKLSPEGQKVDHCARHGEKLLLFCQEDGKVICWLCERSQEHRGHHTFLTEEVAREYQVKLQAALEMLRQKQQEAEELEADIREEKASWKTQIQYDKTNVLADFEQLRDILDWEESNELQNLEKEEEDILKSLTNSETEMVQQTQSLRELISDLEHRLQGSVMELLQGVDGVIKRTENVTLKKPETFPKNQRRVFRAPDLKGMLEVFRELTDVRRYWVDVTVAPNNISCAVISEDKRQVSSPYGARGTRYQTFVNFNYCTGILGSQSITSGKHYWEVDVSKKTAWILGVCAGFQPDAMCNIEKNENYQPKYGYWVIGLEEGVKCSAFQDSSFHTPSVPFIVPLSVIICPDRVGVFLDYEACTVSFFNITNHGFLIYKFSHCSFSQPVFPYLNPRKCGVPMTLCSPSS [human TRIM5α, 5-codon deletion at 324] | 0.879 ± 0.023
12 | MASGILVNVKEEVTCPICLELLTQPLSLDCGHSFCQACLTANHKKSMLDKGESSCPVCRISYQPENIRPNRHVANIVEKLREVKLSPEGQKVDHCARHGEKLLLFCQEDGKVICWLCERSQEHRGHHTFLTEEVAREYQVKLQAALEMLRQKQQEAEELEADIREEKASWKTQIQYDKTNVLADFEQLRDILDWEESNELQNLEKEEEDILKSLTNSETEMVQQTQSLRELISDLEHRLQGSVMELLQGVDGVIKRTENVTLKKPETFPKNQRRVFRAPDLKGMLEVFRELTDVRRYWVDVTVAPNNISCAVISEDKRQVSSPKPQIIYGARGTRYQTFVNFNYQTFVNFNYCTGILGSQSITSGKHYWEVDVSKKTAWILGVCAGFQPDAMCNIEKNENYQPKYGYWVIGLEEGVKCSAFQDSSFHTPSVPFIVPLSVIICPDRVGVFLDYEACTVSFFNITNHGFLIYKFSHCSFSQPVFPYLNPRKCGVPMTLCSPSS [human TRIM5α, 8-codon duplication at 336] | 0.421 ± 0.2

± gives the standard deviation of the averaged measurements. Restriction of a single-cycle SIVsab GFP reporter by TRIM5α v1-loop variants in CRFK cells. Human variants: read share among cells still uninfected after two challenges over input, higher = gained restriction. Rhesus variants: share among infected cells over input, higher = lost restriction. Reporter dose not given per row. No active / inactive call per row; the paper calls a change when both replicates lie above its controls (mean + 2 SD of stop or wild-type variants, or the top frameshift score). Residues outside the varied loop are taken from Swiss-Prot. The paper reads the human single-substitution scores as noise; they and the rhesus combinations repeat poorly (rank correlation 0.3 to 0.4), indel scores repeat only for the top variants, rhesus substitutions well (0.9).
